Patent publication US20250011397A1 (HOSPITAL FOR SICK CHILDREN, published 2025)
Values joined by “and” are separate entries in the source; they are usually repeats but may differ in a detail not shown here. Identical values can stand only once. Like-named read-outs stand apart in the source and are kept apart here.

Experiments:
Assay in all cases: cell-based or functional assay
[1] = molecular target: T1, SARS-CoV-2 Spike on HIV-based pseudotyped virus (Spike plasmid BEI NR52310) (SARS-CoV-2)
[2] = molecular target: T1, SARS-CoV-2 Spike on HIV-based …; remark: listed apart in the source
[3] = molecular target: T1, SARS-CoV-2 Spike on HIV-based …; remark: listed apart in the source
[4] = molecular target: Spike of authentic SARS-CoV-2/SB2-P4-PB virus (SARS-CoV-2)

Binder | Median IC50 (PsV neutralization) [1] | Median IC50 (PsV neutralization) [2] | IC50 SARS-CoV2 PsV (µg/mL), MB [3] [µg/mL] | IC50 SARS-CoV2/SB2-P4-PB (µg/mL), MB [4] [µg/mL]
4A8 MB (other) chain 1: EIVMTQSPLSSPVTLGQPASISCRSSQSLVHSDGNTYLSWLQQRPGQPPRLLIYKISNRFSGVPDRFSGSGAGTDFTLKISRVEAEDVGVYYCTQATQFPYTFGQGTKVDIKRTVAAPSVFIFPPSDEQLKSGTASVVCLLNNFYPREAKVQWKVDNALQSGNSQESVTEQDSKDSTYSLSSTLTLSKADYEKHKVYACEVTHQGLSSPVTKSFNRGECGGGGSGGGGSGGGGSGGGGSGGGGSGGGGSGGGGSGGGGSGGGGSGGGGSGGGGSGGGGSGGGGSGGGGSEVQLVESGAEVKKPGASVKVSCKVSGYTLTELSMHWVRQAPGKGLEWMGGFDPEDGETMYAQKFQGRVTMTEDTSTDTAYMELSSLRSEDTAVYYCATSTAVAGTPDLFDYYYGMDVWGQGTTVTVSSASTKGPSVFPLAPSSKSTSGGTAALGCLVKDYFPEPVTVSWNSGALTSGVHTFPAVLQSSGLYSLSSVVTVPSSSLGTQTYICNVNHKPSNTKVDKKVEPKSCGGGGSGGGGSGGGGSGGGGSGGGGSG[about 200 residues not spelt out] chain 2: [human IgG1 Fc not spelt out]GGGGSGGGGSGGGGSGGGGSGGGGSGGGGSGGGGSGGGGSGGGGSGGGGSGGGGSGGGGSGGGGSGGGGS[human IgG1 Fc not spelt out]GGGGSGGGGSGGGGSGGGGSGGGGSGGSSQIRQNYSTDVEAAVNSLVNLYLQASYTYLSLGFYFDRDDVALEGVSHFFRELAEEKREGYERLLKMQNQRGGRALFQDIKKPAEDEW chain 3: EIVMTQSPLSSPVTLGQPASISCRSSQSLVHSDGNTYLSWLQQRPGQPPRLLIYKISNRFSGVPDRFSGSGAGTDFTLKISRVEAEDVGVYYCTQATQFPYTFGQGTKVDIKRTVAAPSVFIFPPSDEQLKSGTASVVCLLNNFYPREAKVQWKVDNALQSGNSQESVTEQDSKDSTYSLSSTLTLSKADYEKHKVYACEVTHQGLSSPVTKSFNRGECGGGGSGGGGSGGGGSGGGGSGGGGSGGGGSGGGGSGGGGSGGGGSGGGGSGGGGSGGGGSGGGGSGGGGSEVQLVESGAEVKKPGASVKVSCKVSGYTLTELSMHWVRQAPGKGLEWMGGFDPEDGETMYAQKFQGRVTMTEDTSTDTAYMELSSLRSEDTAVYYCATSTAVAGTPDLFDYYYGMDVWGQGTTVTVSSASTKGPSVFPLAPSSKSTSGGTAALGCLVKDYFPEPVTVSWNSGALTSGVHTFPAVLQSSGLYSLSSVVTVPSSSLGTQTYICNVNHKPSNTKVDKKVEPKSCGGGGSGGGGSGGGGSGGGGSGGGGSGGGKTPDAMKAAMALEKKLNQALLDLHALGSARTDPHLCDFLETHFLDEEVKLIKKMGDHLTNLHRLGGPEAGLGEYLFERLTLRHD | 0.052 µg/mL and 23 pM | – | – | –
MB 64 (other) heavy: EVQLLESGGGLVQPGGSLRLSCAASGFPFSQHGMHWVRQAPGKGLEWVSAIDRSGSYIYYADSVKGRFTISRDNSKNTLYLQMNSLRAEDTAVYYCARDTYGGKVTYFDYWGQGTLVTVSSASTKGPSVFPLAPSSKSTSGGTAALGCLVKDYFPEPVTVSWNSGALTSGVHTFPAVLQSSGLYSLSSVVTVPSSSLGTQTYICNVNHKPSNTKVDKKVEPKSC light: DIQMTQSPSSLSASVGDRVTITCRASQGISSHLAWYQQKPGKAPKLLIYDASNLETGVPSRFSGSGSGTDFTLTISSLQPEDFATYYCQQTYSTPWTFGQGTKVEIKRTVAAPSVFIFPPSDEQLKSGTASVVCLLNNFYPREAKVQWKVDNALQSGNSQESVTEQDSKDSTYSLSSTLTLSKADYEKHKVYACEVTHQGLSSPVTKSFNRGEC | – | 14 µg/mL and 6.1 nM | 14 | –
MB 52 (other) heavy: QVQLVQSGAEVKKPGSSVKVSCKASGYTFTSYGISWVRQAPGQGLEWMGGIIPMFGTTNYAQKFQGRVTITADKSTSTAYMELSSLRSEDTAVYYCARDRGDTIDYWGQGTLVTVSSASTKGPSVFPLAPSSKSTSGGTAALGCLVKDYFPEPVTVSWNSGALTSGVHTFPAVLQSSGLYSLSSVVTVPSSSLGTQTYICNVNHKPSNTKVDKKVEPKSC light: DIQMTQSPSSLSASVGDRVTITCRASQGISNNLNWYQQKPGKAPKLLIYAASSLESGVPSRFSGSGSGTDFTLTISSLQPEDFATYYCQQGNGFPLTFGPGTKVDIKRTVAAPSVFIFPPSDEQLKSGTASVVCLLNNFYPREAKVQWKVDNALQSGNSQESVTEQDSKDSTYSLSSTLTLSKADYEKHKVYACEVTHQGLSSPVTKSFNRGEC | – | 0.0002 µg/mL and 0.087 pM | 0.0002 | 0.27
VHH-72-Fc (Fc fusion) QVQLQESGGGLVQAGGSLRLSCAASGRTFSEYAMGWFRQAPGKEREFVATISWSGGSTYYTDSVKGRFTISRDNAKNTVYLQMNSLKPDDTAVYYCAAAGLGTVVSEWDYDYDYWGQGTQVTVSSGS[human IgG1 Fc not spelt out] | 16 nM | – | – | –
